The values that follow come from PubChem BioAssay AID485344 (National Center for Advancing Translational Sciences (NCATS), 2010).

Out of some 340,000 compounds screened, about 6,900 (2%) were called active. No stated cut-off is given here; in the data, active means inhibition above about 30%; inactive means below that, where a call was filed. The list shows a part of the results, in another mix than the full data. The source gives no active or inactive call for entries shown without one.

Sequence of UniProt P14416 (P14416 whole entry, looked up): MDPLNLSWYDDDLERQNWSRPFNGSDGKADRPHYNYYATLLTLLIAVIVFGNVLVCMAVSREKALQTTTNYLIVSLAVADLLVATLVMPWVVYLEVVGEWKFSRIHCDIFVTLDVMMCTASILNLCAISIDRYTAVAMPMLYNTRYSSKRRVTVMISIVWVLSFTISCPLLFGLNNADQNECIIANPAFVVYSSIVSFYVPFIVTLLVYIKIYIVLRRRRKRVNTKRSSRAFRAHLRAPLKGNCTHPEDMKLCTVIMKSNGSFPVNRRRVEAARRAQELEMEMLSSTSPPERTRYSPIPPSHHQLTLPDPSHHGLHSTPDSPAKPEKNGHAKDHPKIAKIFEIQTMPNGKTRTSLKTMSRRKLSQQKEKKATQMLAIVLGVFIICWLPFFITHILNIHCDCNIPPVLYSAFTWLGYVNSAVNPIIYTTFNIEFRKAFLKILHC

The target in the assay is D(2) dopamine receptor (Homo sapiens) (UniProt P14416). In words: HTS Assay for Allosteric Antagonists of the Human D2 Dopamine Receptor: Primary Screen for Antagonists. Further: 0% is about no effect. The settings on record: HEK293 TREx D2 cells, calcium flux, dopamine EC80; at 10 µM; stronger effect = higher value. Put shortly:
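Dopamine at EC80 is the agonist stimulus; test compounds precede it by 180 s. Calcium flux read kinetically in a force-coupled, inducible HEK293 T-REx D2 cell line.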
What is called inhibition is the drop in the measured response relative to a control, in per cent. In the case of `Cc1cc(C)nc(/N=C(\N)Nc2cccc(OCc3ccccc3)c2)n1`, the inhibition was active: 62.7%.
Take `CC(=O)N1c2ccc(S(=O)(=O)N3CCCCCC3)cc2CC1C(=O)NC(C)C` (stereo unspecified): the inhibition amounted to 2.1%.
The result for `CCOC(=O)c1c(C)sc(-c2c(-c3ccc4c(c3)OCCO4)[nH]c3c2c(=O)n(C)c(=O)n3C)c1O` reads 1.15%.
The result for `O=C(CN1CCC(O)(c2cccc(F)c2)CC1)NCCc1c[nH]c2ccccc12` reads active: 44.8%; that for `CCOC(=O)N1CCc2c(sc3c2c(=O)n(Cc2ccccc2)c(=O)n3Cc2cc(C)ccc2C)C1`, 0.218%; that for `Cc1nnc(C)c2c(C)n(-c3ccc4ncccc4c3)c(C)c12`, active: 32.4%.
Take `CC(C)CC(=O)Nc1nc2c(s1)CC(C(C)(C)C)CC2` (stereo unspecified): the inhibition came out at 16.8%.
Take `CC(NCC(=O)Nc1cc(S(=O)(=O)N2CCOCC2)ccc1N1CCOCC1)c1ccco1` (stereo unspecified): the inhibition was active: 63.6%.
In the case of `CCOc1ccc(CNC(=O)c2cccc(NC(=O)N3CCSc4ncccc43)c2)cc1`, the inhibition stood at 13.7%.
On to `CCn1c(C(=O)N2CCC(C(=O)N3CCN(c4cc(C)ccc4C)CC3)CC2)cc2sccc21`, for which the inhibition stood at 25.3%.
In the case of `CC(C)Cn1cc(NC(=O)Nc2cccc(C(F)(F)F)c2)c2ccccc2c1=O`, the inhibition was -12.5%.
With `CC(=O)N1CCc2cc(S(=O)(=O)NC(CC(C)C)C(=O)Nc3ccc(C(C)C)cc3)ccc21` (stereo unspecified) the figure was 2.63%; with `Cc1c(-c2nnc(SCC(=O)Nc3ccccc3F)o2)nnn1-c1ccc(F)cc1`, 1.66%.
With `COc1ccc(CNC(=O)CCc2cn(C)c3ccccc23)cc1`, the inhibition is -0.697%.
Turning to `COc1ccc(C(=O)NC2CC(=O)N(c3ccc4c(c3)OCCO4)C2)cc1` (stereo unspecified), the inhibition is 3.92%.
As to `COc1cccc(N2CCN(S(=O)(=O)c3cn(C)c(C)n3)CC2)c1`, the inhibition came to 8.22%.
The result for `COCCCNCCCCOc1ccc(Br)cc1Cl` reads active: 64.9%.
For `Cc1cc(C)c2cc(C(=O)Nc3ccc(C)c(F)c3)[nH]c2c1`, the inhibition was active: 39%.
As for `CCCNC(=O)c1cnn2c(C)c(Cc3c(C)cc(C)cc3C)c(C)nc12`, the inhibition is -4.63%.
The result for `COc1ccc(NC(=O)c2cc3nc(-c4ccc(Cl)c(Cl)c4)cc(C(F)(F)F)n3n2)c(OC)c1` reads -2.69%.
With `O=C(c1cc2c(s1)CCCC2)N1CCN(Cc2ccc3c(c2)OCO3)CC1`, the inhibition was active: 74.7%.
As for `COc1ccc(-n2nc3c(N4CCCC(C(=O)NCc5ccc(C)cc5)C4)nnc(C)c3c2C)cc1` (stereo unspecified), the inhibition is -13.7%.
Regarding `Cc1sc2ncn(CC(=O)Nc3ccc(F)cc3F)c(=O)c2c1S(=O)(=O)N1CCC(C)CC1`, the inhibition was -14%.
On to `CCOc1ccccc1NC(=O)N1CCC(n2c(C)nc3cccnc32)CC1`, for which the inhibition was found to be 15.9%.
With `CCC(C)Nc1ncnc2c1cnn2-c1ccc(F)cc1` (stereo unspecified), the inhibition is -3.56%.
As to `COc1ccc(NS(=O)(=O)c2ccc3nc(-c4ccccc4)[nH]c3c2)cc1`, the inhibition came to 6.79%.
